Our source for the z-score values is PubChem BioAssay AID488969 (Vanderbilt High Throughput Screening Facility, 2010).

The full ranking holds about 110,000 compounds; the median of “z-score” is about -0.1, and the highest 2% start at about 2. This is one part of the list.

This test concerns the target Metabotropic glutamate receptor 8 (Rattus norvegicus) (UniProt P70579). The test is described as follows: rat mGluR8 modulators via GIRK flux, primary screen, cell-based, thallium flux, HTS (AID 488969). To be noted: HEK293 rat mGluR8, GIRK (G protein-gated inwardly rectifying potassium channel) thallium flux, FluoZin2; at 10 µM; stronger effect = higher value; submaximal glutamate (EC20) added with thallium.
UniProt P70579, sequence (P70579 whole entry, looked up): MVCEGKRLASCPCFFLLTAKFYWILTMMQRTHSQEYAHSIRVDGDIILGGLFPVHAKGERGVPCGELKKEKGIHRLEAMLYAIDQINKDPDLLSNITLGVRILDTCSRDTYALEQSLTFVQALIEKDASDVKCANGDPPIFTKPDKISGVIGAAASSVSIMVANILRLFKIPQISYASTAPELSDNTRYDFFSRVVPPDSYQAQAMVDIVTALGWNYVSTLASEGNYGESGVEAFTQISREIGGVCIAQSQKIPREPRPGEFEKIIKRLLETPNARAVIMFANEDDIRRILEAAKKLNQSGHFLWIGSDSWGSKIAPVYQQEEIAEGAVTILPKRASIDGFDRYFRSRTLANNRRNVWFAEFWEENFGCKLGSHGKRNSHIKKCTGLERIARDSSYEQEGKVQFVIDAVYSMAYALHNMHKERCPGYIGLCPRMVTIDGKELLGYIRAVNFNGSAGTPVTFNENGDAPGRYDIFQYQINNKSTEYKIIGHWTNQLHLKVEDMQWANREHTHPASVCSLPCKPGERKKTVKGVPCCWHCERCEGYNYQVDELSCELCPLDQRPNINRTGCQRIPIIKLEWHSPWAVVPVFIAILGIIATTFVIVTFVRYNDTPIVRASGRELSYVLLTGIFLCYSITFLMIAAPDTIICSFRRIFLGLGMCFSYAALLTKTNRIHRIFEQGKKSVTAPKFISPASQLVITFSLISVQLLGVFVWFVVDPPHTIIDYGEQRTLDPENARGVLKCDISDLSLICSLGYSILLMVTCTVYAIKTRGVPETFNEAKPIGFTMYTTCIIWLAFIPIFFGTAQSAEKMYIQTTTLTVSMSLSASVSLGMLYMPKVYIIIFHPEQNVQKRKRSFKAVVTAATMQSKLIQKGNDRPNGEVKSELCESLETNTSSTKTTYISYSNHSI
On to `CCOc1ccc(C2CC(=O)NC(SC)=C2C#N)cc1` (stereo not given), for which the z-score was -0.607.

`COc1cccc(/C=C/C(=C2\C(=O)N(c3ccccc3)N=C2C)c2ccc(Br)cc2)c1OC` gave a z-score of -0.143.

Consider `O=C(CC(O)(c1ccccc1)C(F)(F)C(F)F)c1cccs1` (stereo not given), for which the z-score is -0.39.

With `Cc1ccc(-c2cc(C(F)(F)F)n3ncc(C(=O)N4CCCc5ccccc54)c3n2)cc1`, the z-score was determined as 0.0537.

`Cc1ccc(-n2[nH]c(C)c(C=Nc3ccc4[nH]c(=O)[nH]c4c3)c2=O)cc1` came in with a z-score of -0.443.

With `Cc1cccc(C(=O)N2CCN(c3ccc([N+](=O)[O-])c(NCc4ccco4)c3)CC2)c1`, the z-score is -0.631.

Molecule `Cc1ccc(S(=O)(=O)Cn2nnnc2C(c2ccc(F)cc2)N2CCC(C(N)=O)CC2)cc1` (stereo not given) returned a z-score of -0.332.

On to `CCOCN(C(=O)Cn1c(C(C)O)nc2ccccc21)c1c(C)cccc1CC` (stereo not given), for which the z-score is 0.17.

Molecule `CCC(Sc1nc2cc3c(cc2c(=O)n1Cc1ccco1)OCO3)C(=O)NCCOC` (stereo not given) had a z-score of -0.33.

`Oc1ccccc1C=Nc1ccccc1-c1nc2ccccc2[nH]1`: the z-score was -0.0503.

Molecule `COc1ccc(C2C3C(C)=NN=C3CC(C)(O)C2C(C)=O)cc1` (stereo not given) gave a z-score of 0.0989.

On to `COc1ccc(C)cc1NC(=O)CCN1CCCC1`, for which the z-score came to 0.135.

As for `COc1ccc(C(=O)NC2=C(C#N)CCC2)cc1OC`, the z-score was found to be 0.296.

As for `O=C(Nc1nccs1)c1ccc2nccnc2c1`, the z-score came out at 0.133.

As for `Cc1cc(C)c(C#N)c(Sc2ccc(N)cc2)n1`, the z-score came out at 0.0341.

With `CC(C)C(NC(=O)c1ccccc1)C(=O)OCc1cc([N+](=O)[O-])cc2c1OCOC2` (stereo not given), the z-score was -0.285.

As to `C/C(=N/NC(=O)c1ccc2nc[nH]c2c1)c1cccs1`, the z-score was -0.26.

`CC(CC(=O)Nc1nncs1)c1ccccc1` (stereo not given) gave a z-score of 0.374.

As to `CC(=O)Nc1nonc1NC(C)=O`, the z-score was found to be 1.61.

`c1ccc(-c2nn3c(Cn4nnc5ccccc54)nnc3s2)nc1` displayed a z-score of -0.0917.

Molecule `CC1CC(C)CN(C(=O)CSc2nnc(CSc3ncccn3)n2C)C1` (stereo not given) showed a z-score of 0.853.

`c1cc2c(cc1Nc1nc(-c3ccc4c(c3)OCO4)cs1)OCCO2` displayed a z-score of 0.0369.

In the case of `c1ccc(CSc2ncn(-c3ccccc3)n2)cc1`, the z-score is -0.469.

`Cc1cc(C)cc(N2C(=O)c3nccnc3C2=O)c1`: the z-score was -0.13.

The molecule `Cc1ccccc1NC(=S)NCc1cccs1` showed a z-score of -0.0738.

`Cc1cccc2c1CC(C)(C)NC2=C(C#N)C#N` came in with a z-score of 0.368.

`CCOc1ccc(C(C)=O)cc1N1C(=O)C2C3C=CC(C3=C(C)C)C2C1=O` (stereo not given): the z-score was -0.272.

In turn, `CC1=CC(=C(C#N)c2nc3ccccc3s2)C=C(C)N1Cc1ccco1` had a z-score of -2.75.

With `Cc1cnc(C(=O)Nc2ccc(F)c(F)c2)cn1`, the z-score came out at 0.772.

On to `c1n[nH]c(SCCCCSc2ncn[nH]2)n1`, for which the z-score was -0.449.

Consider `CCN(CC)S(=O)(=O)c1ccc(N2CCCCC2)c(C(=O)Nc2ccccc2N2CCOCC2)c1`, for which the z-score is -0.22.

Consider `CC(C)NC(=O)C1CC(=O)N(c2ccc(F)c(Cl)c2)C1` (stereo not given), for which the z-score worked out at 0.128.

With `CCOC(=O)c1cc(C#N)c(Oc2ccccc2)nc1-c1ccccc1`, the z-score was -0.996.

`CCS(=O)(=O)N1Cc2ccccc2CC1C(=O)Nc1ccc(C)cc1` (stereo not given): the z-score came out at 0.251.

`O/N=C1\CCCc2ccc(Cl)cc21` registered a z-score of -0.339.

`NS(=O)(=O)c1ccc(NS(=O)(=O)c2ccc(NC(=S)Nc3ccccc3)cc2)cc1` came in with a z-score of 0.672.

`COc1cccc(N2CCN(C(=S)NCCc3ccccc3)CC2)c1` yielded a z-score of -0.186.

Molecule `Cc1nnc(SCCn2c(N3CCCC(C)C3)nc3c2c(=O)[nH]c(=O)n3C)s1` (stereo not given) displayed a z-score of 0.294.

For the molecule `O=C(Nc1ccccc1)c1cc(-c2ccccc2Cl)no1`, the z-score was -0.171.

Regarding `Cc1ccccc1NC(=S)N(CCCN1CCCCC1)Cc1ccco1`, the z-score was -0.915.

The molecule `Cc1nn(-c2ccccc2)c2c1C1(C(=O)N(C)c3ccccc31)C(C#N)=C(N)O2` (stereo not given) gave a z-score of -0.0421.

`COc1ccc(C(C#N)N2N=C(C)CC2(C)C)cc1OC` (stereo not given) had a z-score of 0.407.

Molecule `Cc1cc(NS(=O)(=O)c2ccc(Nc3nc(-c4sc(C)nc4C)cs3)cc2)no1` showed a z-score of 0.423.

Regarding `Cc1cc(C)n(C(=O)c2ccc([N+](=O)[O-])cc2[N+](=O)[O-])n1`, the z-score was found to be 0.594.

Molecule `O=C(Nc1ncc(Cc2cccc(Cl)c2)s1)C1=NCCN1` registered a z-score of 0.267.

`O=C(Nc1cccc(Cl)c1)OCc1cn(-c2ccc(Cl)cc2)nn1`: the z-score amounted to 0.722.

With `CCOC(=O)c1cc(NC(=O)c2ccc(Cl)cc2)c(=O)oc1-c1ccccc1`, the z-score stood at 0.101.

Regarding `Cc1ccc(N(NC(=O)C(O)(c2ccccc2)c2ccccc2)C(=O)CCl)cc1`, the z-score is -0.357.

For `COc1ccc(/C=C/C(=O)NC(=S)Nc2cc3oc4ccccc4c3cc2OC)cc1`, the z-score amounted to 0.0202.

In the case of `O=C(NNC(=O)C(c1ccccc1)c1ccccc1)c1cccs1`, the z-score stood at 0.419.

Molecule `COc1ccc(C2COC(=O)C2=N)c(NC(=O)c2ccccc2)c1` (stereo not given) returned a z-score of -0.27.

`NS(=O)(=O)c1ccc(-c2ccc(C=NC3CCS(=O)(=O)C3)o2)cc1` (stereo not given) gave a z-score of 0.815.

As to `CC(=O)N1N=C(c2ccccc2)CC1c1ccccc1[N+](=O)[O-]` (stereo not given), the z-score is -0.0779.

Take `O=C(Cn1cc(/C=N/NC(=O)c2ccccc2Br)c2ccccc21)Nc1ccc(F)cc1`: the z-score turned out to be 0.65.

On to `Cc1ccc(S(=O)(=O)N(CC(=O)Nc2ccc(Cl)c([N+](=O)[O-])c2)C2CCCCC2)cc1`, for which the z-score was -0.445.

As to `COCCn1cnc2c1c(=O)n(CC(=O)OCC(=O)NCCCc1ccccc1)c(=O)n2Cc1ccccc1`, the z-score is -0.106.

The molecule `O=C(Nc1ccccc1C(=O)NCCc1ccccc1)c1ccco1` displayed a z-score of 0.397.

`O=C(NC(NNc1ccc([N+](=O)[O-])cc1)(C(F)(F)F)C(F)(F)F)c1ccccc1Cl` came in with a z-score of -0.392.

For `CCn1cc(C(=O)Nc2nnc(C)s2)c(=O)c2cc(F)c(N3CCN(C(=O)c4ccco4)CC3)cc21`, the z-score is -0.178.

`COc1ccc(N(C(=O)C2COc3ccccc3O2)C(C(=O)NC2CCCCC2)c2ccccc2)cc1OC` (stereo not given) yielded a z-score of -0.111.

Consider `O=C1Nc2ccc(S(=O)(=O)NCCC3=CCCCC3)c3cccc1c23`, for which the z-score came out at 0.587.

As to `COc1cccc(C(=O)OCC(=O)Nc2cc(C)c(C)cc2[N+](=O)[O-])c1`, the z-score was -0.131.

Molecule `CC(C)(C)NC(=O)Cn1cc(C#N)c2cc(Br)ccc21` had a z-score of -0.0573.

In the case of `O=C(NCCC1=CCCCC1)N[C@@H](Cc1ccccc1)C(=O)O`, the z-score was determined as 0.284.

For the molecule `Cn1c(=O)c(Cc2ccccc2)c(O)c2ccccc21`, the z-score is -0.00789.

`Cc1nc(NC(=O)C23CC4CC(CC(C4)C2)C3)sc1Cc1ccc2c(c1)OCO2` showed a z-score of -0.134.

On to `CCOn1c(=O)c(C)[n+]([O-])c2ccccc21`, for which the z-score is -0.273.

`CC(CCc1ccccc1)NC(=O)c1ccccc1` (stereo not given) showed a z-score of 0.226.

For the molecule `CCN(CC)CC(=O)c1c[nH]c2ccccc12`, the z-score worked out at 0.247.

Turning to `COc1ccc(Oc2c(C=O)c3ccccc3n2C)cc1`, the z-score was -1.1.
